# According to article PMC4336329 (PLoS ONE, 2015):
# In all, about 310,000 compounds went through this assay and about 14,000 (4.5%) showed an effect of 50% or more. Effects have a minus sign here. This is one part of the list.
# Target: human ether-à-go-go-related gene (hERG) potassium channel (human, UniProt Q12809)
# Experiment: primary screen, population patch clamp on CHO cells stably expressing hERG
# 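Further: peak tail current of the secondary pulse compared with the same well before compound.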
# human ether-à-go-go-related gene (hERG) potassium channel, sequence (Q12809 whole entry, looked up): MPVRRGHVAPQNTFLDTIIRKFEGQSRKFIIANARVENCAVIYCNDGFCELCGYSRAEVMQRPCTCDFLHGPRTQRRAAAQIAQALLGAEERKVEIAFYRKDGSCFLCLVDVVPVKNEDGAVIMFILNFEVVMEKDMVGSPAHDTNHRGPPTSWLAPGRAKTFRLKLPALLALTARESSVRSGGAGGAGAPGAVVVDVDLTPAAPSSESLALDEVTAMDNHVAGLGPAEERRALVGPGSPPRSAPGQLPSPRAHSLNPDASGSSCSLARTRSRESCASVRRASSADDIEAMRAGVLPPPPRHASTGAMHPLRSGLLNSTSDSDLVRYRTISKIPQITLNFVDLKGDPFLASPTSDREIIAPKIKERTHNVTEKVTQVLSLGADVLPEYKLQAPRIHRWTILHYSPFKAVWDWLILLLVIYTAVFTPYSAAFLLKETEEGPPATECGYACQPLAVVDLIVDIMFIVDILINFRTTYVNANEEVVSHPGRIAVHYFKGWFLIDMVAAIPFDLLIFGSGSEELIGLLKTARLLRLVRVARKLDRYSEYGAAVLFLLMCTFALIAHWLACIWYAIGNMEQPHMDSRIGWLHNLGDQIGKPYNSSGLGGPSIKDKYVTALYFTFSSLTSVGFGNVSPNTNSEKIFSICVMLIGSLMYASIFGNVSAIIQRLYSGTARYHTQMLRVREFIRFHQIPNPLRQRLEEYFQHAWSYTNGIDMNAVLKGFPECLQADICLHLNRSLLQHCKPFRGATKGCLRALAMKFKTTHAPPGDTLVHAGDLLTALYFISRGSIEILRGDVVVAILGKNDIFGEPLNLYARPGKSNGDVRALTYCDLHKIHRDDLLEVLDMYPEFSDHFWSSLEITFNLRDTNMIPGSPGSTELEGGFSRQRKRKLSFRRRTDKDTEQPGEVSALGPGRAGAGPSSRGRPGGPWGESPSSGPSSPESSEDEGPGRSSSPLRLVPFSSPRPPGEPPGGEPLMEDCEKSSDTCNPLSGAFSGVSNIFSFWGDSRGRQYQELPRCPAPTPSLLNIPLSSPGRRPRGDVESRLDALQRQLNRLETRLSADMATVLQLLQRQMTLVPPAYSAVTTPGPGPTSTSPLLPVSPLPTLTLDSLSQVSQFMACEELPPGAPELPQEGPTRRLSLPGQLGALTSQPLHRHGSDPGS
row,Compound,"hERG current change (%, negative = inhibition) at 10uM"
1,COc1ccc(NC(=S)N2CCN(S(=O)(=O)c3ccc(F)cc3)CC2)cc1OC,8.04%
2,CCOC(=O)N1CCC(n2c(SCC(=O)NCc3ccco3)nc3ccsc3c2=O)CC1,-45.1%
3,CC1=CC2=NC(=O)/C(=C\c3cc(C)n(-c4ccccc4)c3C)C(=N)N2O1,12.8%
4,CC1CCN(CCCNC(=O)CCc2nnc3n(CCc4ccccc4)c(=O)c4ccccc4n23)CC1,-76.8%
5,O=C(NCCc1ccccc1)C1CCN(C(=O)c2ccc(F)cc2)CC1,-2.25%
6,NC(=O)c1ccccc1OCC(=O)N1CCC(Cc2ccccc2)CC1,-21.3%
7,COc1ccccc1C(=O)Nc1nnc(S(=O)(=O)N2CCN(c3ccc(F)cc3)CC2)s1,18.5%
8,COc1ccc(-c2nn(CCC#N)cc2C(=O)Nc2ccccn2)cc1OC,10.1%
9,Cn1c(-[n+]2c(-c3ccccc3)cc(-c3ccccc3)cc2-c2ccccc2)nc2cc([N+](=O)[O-])ccc21.[I-],-12.2%
10,COc1ccc(NC(=O)c2cc3ccccc3o2)cn1,8.25%
11,CC(=O)c1nn(-c2ccccc2)cc1C(=O)c1ccc(C)cc1,3.72%
12,COc1cc(NC(=O)c2ccnn2C)c(OC)cc1Cl,4%
13,CSc1nc(-c2ccccc2)nc(SC)c1C(C)=O,18.5%
14,CCN(CC)CCNC(=O)c1cc([N+](=O)[O-])c(N(C)C)cc1OC.Cl,-12%
15,CC(=O)Nc1ccc(S(=O)(=O)N2CCOCC2)cc1,7.69%
16,CC(NS(=O)(=O)c1ccc(NC(=O)N2CCCCC2)cc1)c1ccccc1 (stereo not shown),3.56%
17,COC(=O)c1ccc(/C=N/NC(=O)C2CC(=O)N(c3ccc(OC)cc3)C2)cc1 (stereo not shown),-16.2%
18,COc1ccccc1/C(C)=N/NC(=S)NCc1ccccc1,-7.92%
19,O=C(c1ccccc1)N1CCC2(CC1)OCCO2,9.77%
20,Cn1c(N)c(C(=O)COC(=O)c2cc(-c3ccccc3)nc3ccccc23)c(=O)n(C)c1=O,7.78%
21,C=C[C@@H](C)N(Cc1ccc(OC)cc1)S(=O)(=O)N(Cc1ccccc1)[C@H](C=C)C(C)C,3.31%
22,CC(C)c1ccc(NC2CCCN(C(=O)CN3C(=O)CSC3=O)C2)cc1 (stereo not shown),19.8%

row,Compound,"hERG current change (%, negative = inhibition) at 10uM"
1,COc1cc2c(cc1OC)CN(C(=O)c1cc(S(=O)(=O)N3CCCCC3)ccc1Cl)CC2,-20.1%
2,N#CCSc1nc2cc(C(=O)N3CCCC3)ccc2c(=O)n1Cc1ccccc1,-14.7%
3,CCCc1cc(=O)oc2c(CN3CCCC3)c(O)c(Cl)cc12,-28%
4,CC1CCCN(C(=S)Nc2ccc(F)cc2)C1 (stereo not shown),8.36%
5,CC(C)NC[C@H](O)COc1cccc2[nH]ccc12,8.94%
6,CC(C)Oc1ccc(CCC(=O)NNC(=O)c2ccccc2C(=O)O)cc1,25.4%
7,COC(=O)c1ccc(C2/C(=C(/O)c3ccc(OC)cc3)C(=O)C(=O)N2Cc2ccco2)cc1 (stereo not shown),4.85%
8,Cc1nc2sc3c(c2c(=O)o1)CC(C)(C)OC3,22.4%
9,O=C(NCc1ccco1)C1CC(c2cc(C(F)(F)F)cc(C(F)(F)F)c2)=NO1 (stereo not shown),3.12%
10,CCN(CC)CCNc1nc2c(c(=O)n(C)c(=O)n2C)n1C/C=C(/C)Cl,-58.9%
11,Cc1cc(C)n(C(=O)CCNC(=O)c2ccccc2Br)n1,12%
12,Cc1occc1C(=O)N/N=C/c1ccc(OCc2ccccc2)cc1,10.3%
13,CC(NC(=O)c1ccc(N(C)C)cc1)c1ccc(F)cc1 (stereo not shown),-2.12%
14,NC(=O)C1=C[C@H](c2ccc(Br)cc2)C[C@H](OCc2ccc(CO)cc2)O1,-20.6%
15,Cl.c1ccc(-c2nc(NCc3cccnc3)c3oc4ccccc4c3n2)cc1,-0.432%
16,COc1ccc(CCn2nnnc2C(CC(C)C)N2CCC(C(N)=O)CC2)cc1OC (stereo not shown),-9.9%
17,Nc1ccccc1S(=O)(=O)NC1=NCCCCC1,14.8%
18,COc1ccc(C(c2nnnn2Cc2cccs2)N2CCN(c3ccccc3F)CC2)cc1 (stereo not shown),4.04%
19,C/C(CC(=O)Nc1cc(Cl)ccc1Cl)=N\NC(=O)COc1cccc(C)c1,10.7%
20,O=C(O)c1cnn(-c2ccccc2)c1-c1ccccc1,11.6%
21,CCC(C)C(=O)Nc1ncc2c(n1)CC(c1cccs1)CC2=O (stereo not shown),-32.5%
22,COc1ccc(C(=O)NCc2ccc(Cl)c(Cl)c2)cc1OC,-25.4%

row,Compound,"hERG current change (%, negative = inhibition) at 10uM"
1,CCOC(=O)c1[nH]cnc1C(=O)Nc1ccc([N+](=O)[O-])cc1,4.57%
2,CCC1CCCCN1CC(=O)Nc1cc(C)nn1-c1nc(C)cc(C)n1 (stereo not shown),-58.8%
3,CC1CCC(NC(=O)CN2C(=O)NC3(CCCCC3C)C2=O)CC1 (stereo not shown),4.52%
4,Cc1cc(C(F)(F)F)cc(NNC(=O)NC(=O)c2ccccc2Cl)n1,11.1%
5,Cc1ccc(S(=O)(=O)N2CCOCC2)cc1NC(=O)COC(=O)CSc1ccc(Br)cc1C,-21.5%
6,CC(C)c1nnc(SCC(=O)N2CCc3ccccc32)n1C,-2.76%
7,CS(=O)(=O)n1nc(OC(=O)c2cc(Br)ccc2Cl)cc1N,14.1%
8,COCC(=O)Nc1ccccc1C(=O)Nc1ccc(OC)cc1,-7.96%
9,CCc1ccc(NC(=O)NC(C)c2ccc3c(c2)OCO3)cc1 (stereo not shown),-2.27%
10,CCOc1ccc(OCCC(=O)OCC(=O)NC2CCCC2)cc1,17.9%
11,CC(C)(C)[C@H]1C=C(C(=O)N2CCOCC2)O[C@@H](OCCCCO)C1,15.8%
12,Cc1cc(=O)[nH]c(/N=C(\N)Nc2ccc3c(c2)OCCO3)n1,7.98%
13,CC(=O)NC12CC3CC(C1)CC(C(=O)OCC(=O)NC(=O)c1cccn1C)(C3)C2,-3.61%
14,COc1ccc(/C=C/C(=O)NCCN=C2NS(=O)(=O)c3ccccc32)cc1,-9.83%
15,Cc1c(N=C2N=C(NC(=O)Nc3ccc(Cl)cc3)c3ccccc32)c(=O)n(-c2ccccc2)n1C,13.2%
16,Cc1ccc(S(=O)(=O)NCc2ccco2)cc1C(N)=O,21.4%
17,CCn1ccnc1CN1CCCC(C(=O)c2cccc(C(F)(F)F)c2)C1 (stereo not shown),-31.1%
18,Cc1cc(=O)oc2c(CN3CCCC3)c(O)c(Cl)cc12,5.35%
19,COc1ccc(OCC(=O)NCC(c2ccc(OC)cc2)N2CCCCC2)cc1 (stereo not shown),-33.1%
20,Cc1cc(N2C(=O)C(=O)/C(=C(/O)c3ccc(F)cc3)C2c2cccc(Br)c2)no1 (stereo not shown),2.87%
21,COCCNC(=O)CNC(=S)N(Cc1ccccc1)Cc1cccnc1,-0.88%
22,CCC(=O)Nc1cc(OC)cc(OC)c1,17.2%

row,Compound,"hERG current change (%, negative = inhibition) at 10uM"
1,Cc1nc(OCc2c(C)noc2C)c2ccccc2n1,8.9%
2,COc1ccc(S(=O)(=O)N2CCCCCC2)cc1C(=O)N1CCCCC1,-0.195%
3,O=C(Nc1cccnc1)c1ccc2snnc2c1,0.558%
4,Cc1ccc(-n2c(O)c(/C=N/N3CCCCCC3)c(=O)[nH]c2=O)cc1C,-0.773%
5,O=C1C=C(NCc2ccco2)C2(CCCCC2)O1,-3.65%
6,COc1ccc(/C=C(\NC(=O)c2cccs2)C(=O)NC(C)(C)C)cc1OC,14.8%
7,O=C(Nc1cccc(-c2nc3ncccc3o2)c1)c1sc2cc(Cl)ccc2c1Cl,-5.83%
8,Cc1ccc(-n2ncc3c(SCC(=O)Nc4cc(C)on4)ncnc32)c(C)c1,17.9%
9,O=C(/C=C/c1ccccc1Cl)NNC(=O)c1ccncc1,-11.4%
10,O=C(Nc1nnc(SCc2ccccc2Cl)s1)c1cccc([N+](=O)[O-])c1,-3.26%
11,CC(=O)Nc1ccc(SC[C@H](CC(C)C)N2CCN(CC(C)C)CCC2=O)cc1,-28.1%
12,COc1ccc(C(=O)N/C(=C\c2ccc3c(c2)OCO3)C(=O)Nc2ccc(C(=O)O)cc2)cc1,17.8%
13,COc1ccccc1NC(=O)c1cc(S(=O)(=O)NCc2ccccc2)ccc1F,20%
14,COc1ccc(C(C)=O)cc1CC(C(=O)c1ccc(Br)cc1)N(C)C (stereo not shown),-7.82%
15,Cc1cc(NS(=O)(=O)c2ccc(NC(=O)c3ccc(Cl)cc3[N+](=O)[O-])cc2)no1,21.2%
16,N#C/C=C/C#N,9.42%
17,CCC(/C=N/NC(=O)C(=O)N/N=C/C(CC)CC)CC,9.86%
18,O=C(Cn1c(=O)oc2ccccc21)Nc1ccc(F)c(F)c1,16.6%
19,Cc1ccc2cc(CCNC(=O)C(C)C)c(=O)[nH]c2c1C,11.9%
20,CC1SC(C)C(=O)N(CC(=O)Nc2ccc3c(c2)OCO3)C1=O (stereo not shown),10.3%
21,CC(C)(C)NS(=O)(=O)c1ccc(CCC(=O)NCc2ccco2)cc1,2.7%
22,COc1cccc(CC(=O)Nc2nccs2)c1,0.299%
